{
  "source": "the supplement of paper PMC11417369",
  "note": "± gives the standard deviation of the averaged measurements. The list shows a part of the results.",
  "data": [
    {"system": "PfAP2-I AP2 domain 3 (GST-tagged)", "experiment": "gcPBM binding intensity (ln(normalized median fluorescence intensity)); higher = stronger DNA binding", "outline": "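GST-tagged P. falciparum DNA-binding domains, expressed in E. coli (about 25 μg on average), were applied for 1 h to an Agilent 4 × 180k array of primer-extended double-stranded 36-bp intergenic genomic probes plus negative controls. The binding buffer was 1× PBS with 1% milk, 0.2 mg/ml BSA, 0.5% salmon testes DNA and 0.03% Triton X-100. Bound protein was detected with Alexa488 anti-GST antibody and scanned at 488 nm. Binding intensity is the highest Masliner-normalised natural-log median intensity across replicate spots of either probe orientation.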", "values": [
      {"sequence": "TCCAAATGAAAAAATTGTACATATTTTATCATATAT [XGTACX_site6159]", "gcPBM binding intensity (ln)": "7.5 ± 0.56"},
      {"sequence": "TATAATTTAAAATACACACACATATATATAATATAT [CACACA_site2000]", "gcPBM binding intensity (ln)": "7.71 ± 0.47"},
      {"sequence": "ATAAGAAATTTCATACGTACATAAATAAATATATAT [XGTACX_site2932]", "gcPBM binding intensity (ln)": "7.95 ± 0.52"},
      {"sequence": "TAAAAAAAAGGAAATACATGCATCTACATATATATA [TGCATGCA_site500]", "gcPBM binding intensity (ln)": "8.04 ± 0.98"},
      {"sequence": "ATATATTTCATTTTTGTACACACAACGTTGGAGGGT [CACACA_site8999]", "gcPBM binding intensity (ln)": "8.25 ± 0.47"},
      {"sequence": "AAAAAAAAAATATATATATATATATAATATATATAT [TGCATGCA_negctrl_site329]", "gcPBM binding intensity (ln)": "9.05 ± 0.27"},
      {"sequence": "ATATAGGTAATAATAATACACACGGTGAAATATAGA [CACACA_site4040]", "gcPBM binding intensity (ln)": "7.94 ± 0.44"},
      {"sequence": "AAAAACTAACTGTATTGTACTCTCTTATAAATTCAC [XGTACX_site8967]", "gcPBM binding intensity (ln)": "7.66 ± 0.57"},
      {"sequence": "TATTGTAAAGTGTCATTATTACGTTATATTATATAT [CACACA_negctrl_site98]", "gcPBM binding intensity (ln)": "7.62 ± 0.48"},
      {"sequence": "GACAATATTAAAACATGTACATGCATTTTATGAATA [XGTACX_site553]", "gcPBM binding intensity (ln)": "7.84 ± 0.68"},
      {"sequence": "TATAATATAAAATATGCACACATTGGAATGGGAGAA [CACACA_site3746]", "gcPBM binding intensity (ln)": "8.76 ± 0.63"},
      {"sequence": "AAAAAAAAAAAAAAGGTGCAAATAAATTAACCTTAT", "gcPBM binding intensity (ln)": "11.4 ± 0.44"},
      {"sequence": "AAAAAAAACGCACATACACACACACCCATATATATA [CACACA_site9118]", "gcPBM binding intensity (ln)": "8.51 ± 0.55"},
      {"sequence": "AAATGTTAAAATGACAGTACATATATAAAAAAAAAA [XGTACX_site3936]", "gcPBM binding intensity (ln)": "8.04 ± 0.75"},
      {"sequence": "TTTTATTTTTTCCGACGTACATCCATTATATATAAT [XGTACX_site4469]", "gcPBM binding intensity (ln)": "8.15 ± 0.68"},
      {"sequence": "CTAGGAAATTATATGGGTACTCATATTCATAAAAAA [XGTACX_site1846]", "gcPBM binding intensity (ln)": "7.71 ± 0.5"},
      {"sequence": "AAATATTTGGAGAAATGTACATATTATAAATATATT [XGTACX_site6885]", "gcPBM binding intensity (ln)": "7.96 ± 0.54"},
      {"sequence": "GTCGCCAAAAGGTGTACACATAATGCATTATCATAA [CACACA_site6112]", "gcPBM binding intensity (ln)": "8.79 ± 0.42"},
      {"sequence": "TAAAAAAAATAGCATACACACATATATACATATATA [CACACA_site658]", "gcPBM binding intensity (ln)": "7.42 ± 0.54"},
      {"sequence": "TGATAACCTAATAATACACACACATGAATATATATA [CACACA_site8226]", "gcPBM binding intensity (ln)": "7.97 ± 0.79"},
      {"sequence": "ATATTTAGGATTATCTGTACATAATATGTTTAATTA [XGTACX_site3426]", "gcPBM binding intensity (ln)": "7.74 ± 0.46"},
      {"sequence": "ATTAAAAAATTATTCACACAAAATAAAAAAATGAAA [CACACA_site4918]", "gcPBM binding intensity (ln)": "7.66 ± 0.51"},
      {"sequence": "TACACATAATATAATGCATGTGTGATGTATGTTTAA [TGCATGCA_site697]", "gcPBM binding intensity (ln)": "8.09 ± 0.66"},
      {"sequence": "AAAATTATTTTTATGTGTACTTATTTATTATTTATA [XGTACX_site6665]", "gcPBM binding intensity (ln)": "7.88 ± 0.4"},
      {"sequence": "TTGTATTCCTTTTACAACTACCATGAAGAGAATTTT [CACACA_negctrl_site1286]", "gcPBM binding intensity (ln)": "7.61 ± 0.5"},
      {"sequence": "ATAGGACATGTATCCAGTACATATTTAAAAAAAATA [XGTACX_site88]", "gcPBM binding intensity (ln)": "7.51 ± 0.45"},
      {"sequence": "GCATATATCAAATATCGTACATTTTTTAAATTAAAA [XGTACX_site3994]", "gcPBM binding intensity (ln)": "7.71 ± 0.39"},
      {"sequence": "ATAAAATCAAAATATACACACAAGGGGGAAAATCAA [CACACA_site2809]", "gcPBM binding intensity (ln)": "8.37 ± 0.14"},
      {"sequence": "TTTGTAAGTCTTTGTTGTACTCAATAGAATGAAGAA [XGTACX_site8930]", "gcPBM binding intensity (ln)": "8.1 ± 0.3"},
      {"sequence": "TTTTCTTTTTTTTATTGTACTTATAAAAATAAATAA [XGTACX_site3498]", "gcPBM binding intensity (ln)": "7.78 ± 0.18"},
      {"sequence": "TACTTATGTGCATACCTACACACTTACATATATATA [CACACA_site2975]", "gcPBM binding intensity (ln)": "8.59 ± 0.35"},
      {"sequence": "GATGATGTTTATTTGTGTACATATTAATACTTAATA [XGTACX_site1902]", "gcPBM binding intensity (ln)": "8.09 ± 0.28"},
      {"sequence": "AATTATTTACCCTATACACACAAAACCCACTAAAAA [CACACA_site4801]", "gcPBM binding intensity (ln)": "8.78 ± 0.45"},
      {"sequence": "AAGAACAGAACGTACACACACATATATATATATATA [CACACA_site3457]", "gcPBM binding intensity (ln)": "9.33 ± 0.49"},
      {"sequence": "AAAAAAAGAATGTGAACACACACATTGAATATAATT [CACACA_site8341]", "gcPBM binding intensity (ln)": "7.65 ± 0.81"},
      {"sequence": "AATCATATGAAAAATACATGCGCATGGATACCTTTA [TGCATGCA_site224]", "gcPBM binding intensity (ln)": "7.79 ± 0.8"},
      {"sequence": "TATAAATAAATACATACACACACATACATATATATA [CACACA_site9024]", "gcPBM binding intensity (ln)": "8.04 ± 0.64"},
      {"sequence": "AATAATAATAGTAATATGTACATATATATATATATA [TGCATGCA_negctrl_site542]", "gcPBM binding intensity (ln)": "9.22 ± 0.51"},
      {"sequence": "TATAAGCAAAAACACACACACATATATATATATATA [CACACA_site3804]", "gcPBM binding intensity (ln)": "9.4 ± 0.35"},
      {"sequence": "TTTTTATTCGATGATCAAATAGGTATATACAAAAAA [CACACA_negctrl_site1813]", "gcPBM binding intensity (ln)": "8.34 ± 0.64"},
      {"sequence": "TTATTTAAAAAAAAGTGTACCCATATATTATAAATC [XGTACX_site8374]", "gcPBM binding intensity (ln)": "7.84 ± 0.42"},
      {"sequence": "TAATATTATAGATAAACACACATACACATGTAAATA [CACACA_site7049]", "gcPBM binding intensity (ln)": "7.71 ± 0.72"},
      {"sequence": "AAATGAAATTTGTATACACACAAATATATATATATA [CACACA_site836]", "gcPBM binding intensity (ln)": "9.16 ± 0.19"},
      {"sequence": "GCATCCCTTTTTATGTGTACATACAAAGGCAATTAC [XGTACX_site6977]", "gcPBM binding intensity (ln)": "8.24 ± 0.36"},
      {"sequence": "TATTGTTTTAAAGAGACATGCAATATATATTATTCC [TGCATGCA_site752]", "gcPBM binding intensity (ln)": "7.77 ± 0.75"},
      {"sequence": "AAAATATAAATCTAAGCATGCAAAAAAAATTTATAA [TGCATGCA_site1008]", "gcPBM binding intensity (ln)": "7.58 ± 0.88"},
      {"sequence": "AAAGACGCAAAATTGGTGCGCTGCTTTTAGCATTTT", "gcPBM binding intensity (ln)": "9.03 ± 0.18"},
      {"sequence": "AAAAAAAAAAAGTACACACATACATATAAATATATA [CACACA_site1809]", "gcPBM binding intensity (ln)": "8.05 ± 0.2"},
      {"sequence": "ATTTATATCCTTAAACGTACATTGTATTGTATTTTA [XGTACX_site6080]", "gcPBM binding intensity (ln)": "7.86 ± 0.52"},
      {"sequence": "ACAGAATATTTAATTCAACACACATACATATTTATT [CACACA_site8734]", "gcPBM binding intensity (ln)": "7.61 ± 0.52"},
      {"sequence": "AATAATCATGATCAAAGTACTTATGAATACCAAAAA [XGTACX_site2572]", "gcPBM binding intensity (ln)": "7.87 ± 0.78"},
      {"sequence": "TGCATGCATTATCATAGTACATATAATGTTGTATAA [XGTACX_site2775]", "gcPBM binding intensity (ln)": "8 ± 0.58"},
      {"sequence": "TAATCTTTCGTACATGTACACACAGAAAAAAAAAAA [CACACA_site8798]", "gcPBM binding intensity (ln)": "8.09 ± 0.71"},
      {"sequence": "TATTAAGTATTTTACGTACACACTTATAAATGTACA [CACACA_site3885]", "gcPBM binding intensity (ln)": "7.96 ± 0.29"},
      {"sequence": "ATTATTAAGTTTCACAAGAACATTGTTAACAATTTT [CACACA_negctrl_site1128]", "gcPBM binding intensity (ln)": "7.5 ± 0.64"},
      {"sequence": "TATAAGGTGTCCTATACACACTCCAATAGATATATA [CACACA_site7066]", "gcPBM binding intensity (ln)": "7.87 ± 0.39"},
      {"sequence": "AATTTATATTTTCGTAGTACGTATTTTATTCTTTTG [XGTACX_site4162]", "gcPBM binding intensity (ln)": "7.83 ± 0.47"}
    ]}
  ]
}
